The other results are listed elsewhere or left out. No stated cut-off is given here; in the data, active = 3.2 or more and inactive = the rest. The signal is at background level for most entries.

Test in all cases: enrichment score (SH2-bound / input frequency) (ratio); bacterial display of known human phosphotyrosine sites (pTyr-Var adds point mutants) read by sequencing; higher = stronger binding; tyrosines were phosphorylated by kinases first
Holding throughout (conditions): peptide library: Human pTyr

Test [1] addresses SHP2 C-SH2 domain E139D.
The target in test [2] is SHP2 C-SH2 domain wild-type.
The target of test [3] is SHP2 N-SH2 domain L43F.
The target in test [4] is SHP2 N-SH2 domain T42A.
Test [5] addresses SHP2 N-SH2 domain T52S.
Test [6] addresses SHP2 N-SH2 domain wild-type.
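Further: displayed peptides selected on beads carrying the immobilized SH2 domain, with library peptides lacking any tyrosine serving as negative controls.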

Take DILLTLDYPKEALKL [PLOD2_HUMAN_323]: the enrichment score in test [1] was inactive: 0.876; in test [2], inactive: 0.649; in test [3], inactive: 0.594; in test [4] it was inactive: 0.616; in test [5] it was inactive: 0.793; in test [6], inactive: 0.842.

Consider NENQLQLYQEKCNKR [PLCG2_HUMAN_1245], for which the enrichment score in test [1] was inactive: 1.69; in test [2] it was inactive: 0.932; in test [3], inactive: 0.947; in test [4] it was inactive: 0.893; in test [5], inactive: 0.693; in test [6], inactive: 1.29.

Take SYSEEEKYAFVNWIN [PLSL_HUMAN_124]: the enrichment score is inactive: 0.856 in test [1]; inactive: 0.943 in test [2]; inactive: 0.928 in test [3]; inactive: 0.75 in test [4]; inactive: 0.839 in test [5]; inactive: 0.932 in test [6].

Consider YGPRAEEYEFLTPVE [ARHGDIA_HUMAN_156], for which the enrichment score in test [1] is inactive: 0.923; in test [2] it was inactive: 0.65; in test [3], inactive: 0.902; in test [4], inactive: 0.732; in test [5] it was inactive: 0.857; in test [6], inactive: 0.757.

As to AKGGELVYTDSEARD [PLEC_HUMAN_3033], the enrichment score in test [1] was inactive: 0.733; in test [2] it was inactive: 0.677; in test [3], inactive: 0.765; in test [4], inactive: 0.59; in test [5], inactive: 0.754; in test [6] it was inactive: 0.688.

For IGTERACYRDMSSFP [PLCG1_HUMAN_977], the enrichment score was inactive: 0.845 in test [1]; inactive: 0.578 in test [2]; inactive: 0.636 in test [3]; inactive: 0.649 in test [4]; inactive: 0.793 in test [5]; inactive: 0.783 in test [6].

For NHPDAEEYINLEGTR [ARHGAP5_HUMAN_306_YA], the enrichment score in test [1] was inactive: 0.816; in test [2], inactive: 0.705; in test [3] it was inactive: 0.702; in test [4] it was inactive: 0.716; in test [5], inactive: 0.694; in test [6] it was inactive: 0.877.

For IDIDNSGYVSDAELQ [PLSI_HUMAN_30_YA], the enrichment score in test [1] is inactive: 0.768; in test [2], inactive: 0.647; in test [3], inactive: 0.804; in test [4], inactive: 0.945; in test [5], inactive: 0.763; in test [6] it was inactive: 0.868.

Turning to ADKNKGKYGQFSGLN [PP1A_HUMAN_306], the enrichment score in test [1] was inactive: 1.4; in test [2], inactive: 1.49; in test [3] it was inactive: 1.5; in test [4] it was inactive: 1.32; in test [5], inactive: 1.49; in test [6], inactive: 1.86.

For the molecule FFWLGKDYSNLITKD [PLD2_HUMAN_511], the enrichment score is inactive: 1.77 in test [1]; inactive: 1.86 in test [2]; inactive: 1.53 in test [3]; inactive: 1.42 in test [4]; inactive: 1.6 in test [5]; inactive: 1.94 in test [6].

For the molecule SEPVKDPYVMFPQNA [PLEKHG2_HUMAN_489], the enrichment score in test [1] was inactive: 0.733; in test [2], inactive: 0.528; in test [3] it was inactive: 0.512; in test [4], inactive: 0.595; in test [5] it was inactive: 0.723; in test [6], inactive: 0.683.

For the molecule DSVGEPLYMLFRGIK [PLXB1_HUMAN_1708], the enrichment score is inactive: 1.27 in test [1]; inactive: 1.34 in test [2]; inactive: 1.07 in test [3]; inactive: 1.13 in test [4]; inactive: 1.31 in test [5]; inactive: 1.3 in test [6].

For GGIHPVRYQPGKYPM [PLS4_HUMAN_83], the enrichment score in test [1] was inactive: 2.59; in test [2] it was inactive: 2.71; in test [3], inactive: 2.5; in test [4], inactive: 2.71; in test [5], inactive: 2.92; in test [6], active: 3.51.

As to NEPKKKKYAKEAWPG [PP1R8_HUMAN_335], the enrichment score was inactive: 0.581 in test [1]; inactive: 0.779 in test [2]; inactive: 0.61 in test [3]; inactive: 0.546 in test [4]; inactive: 0.646 in test [5]; inactive: 0.552 in test [6].

As for GGIHPVRYQPGKAPM [PLS4_HUMAN_83_YA], the enrichment score in test [1] is inactive: 2.78; in test [2], inactive: 2.85; in test [3] it was inactive: 2.68; in test [4], inactive: 2.59; in test [5], inactive: 3.08; in test [6], active: 3.6.

Consider IDIDNSGYVSDYELQ [PLSI_HUMAN_30], for which the enrichment score was inactive: 0.667 in test [1]; inactive: 0.68 in test [2]; inactive: 0.691 in test [3]; inactive: 0.665 in test [4]; inactive: 0.877 in test [5]; inactive: 0.711 in test [6].

Regarding VRAQPGKYPMPNQSV [PLS4_HUMAN_88_YA], the enrichment score in test [1] is inactive: 2.06; in test [2], inactive: 1.94; in test [3] it was inactive: 1.75; in test [4], inactive: 2.01; in test [5], inactive: 2.18; in test [6] it was inactive: 2.78.

As to SASEEEKYAFVNWIN [PLSL_HUMAN_124_YA], the enrichment score in test [1] was inactive: 1.12; in test [2], inactive: 0.807; in test [3], inactive: 1.18; in test [4] it was inactive: 0.823; in test [5], inactive: 0.696; in test [6], inactive: 1.03.

Values taken from the supplement of paper PMC10369915.
